# Measured values taken from PubChem BioAssay AID651804 (National Center for Advancing Translational Sciences (NCATS), 2012).
# Several values for one entry are separate records, joined by “and”; a condition that tells them apart may be missing. Equal entries are not always repeated. Out of some 1,200 compounds screened, about 20 (2%) were called active. Inconclusive results, whose numbers are uncertain, are shown with a selection of clear calls. Calls come from the whole dose curve; as a rule, active = well fitted inhibition curve with a large enough effect; inconclusive = small, poorly fitted or top-dose-only effect; inactive = no such curve, though single readings can be large or run the other way. Potencies of inconclusive entries are doubtful fits and often do not repeat.
# Target: Transcriptional regulator ERG (Homo sapiens) (UniProt P11308)
# UniProt P11308, sequence (P11308 whole entry, looked up): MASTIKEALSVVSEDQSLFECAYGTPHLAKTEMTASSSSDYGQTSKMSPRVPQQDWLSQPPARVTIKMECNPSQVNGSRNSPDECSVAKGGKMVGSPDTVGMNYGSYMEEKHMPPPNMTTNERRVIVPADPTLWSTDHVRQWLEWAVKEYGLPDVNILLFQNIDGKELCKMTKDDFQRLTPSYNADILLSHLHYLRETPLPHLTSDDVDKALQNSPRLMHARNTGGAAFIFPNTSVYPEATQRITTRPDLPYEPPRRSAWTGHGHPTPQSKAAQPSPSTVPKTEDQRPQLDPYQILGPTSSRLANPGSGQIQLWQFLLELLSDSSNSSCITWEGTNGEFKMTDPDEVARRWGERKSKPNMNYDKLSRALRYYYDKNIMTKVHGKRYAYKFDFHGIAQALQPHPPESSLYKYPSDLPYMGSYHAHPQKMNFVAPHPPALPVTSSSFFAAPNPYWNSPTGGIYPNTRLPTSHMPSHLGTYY
# Test: qHTS for Small Molecule Inhibitors of the ERG Ets/DNA interaction: HTRF assay against cherry picks
# Conditions: His-ERG Ets domain with biotin-DNA; series mostly up to 154 µM
# From the text: The Ets family of proteins is a family of ~30 conserved transcription factors defined by the presence of an ~85 amino acid domain referred to as the Ets domain, which mediates sequence-specific DNA binding to a core DNA element GGAA/T.The Ets family member ERG has been linked to several neoplasms. […] More extensive studies of the effects of over-expression of ERG in prostate cells have recently been carried out and have shown that over-expression of ERG results in increased invasion. […] We will carry out a high throughout screen to identify inhibitors of the interaction between ERG and DNA using a fluorescence polarization (FP) assay with a His-tagged ERG Ets domain and fluorescently-labeled DNA probes to develop small molecule inhibitors of this interaction as probes to test this hypothesis and lay the groundwork for the development of targeted therapies against ERG. This is the counterscreen against the cherry picks. NIH Molecular Libraries Probe Production Network [MLPCN] NIH Chemical Genomics Center [NCGC] Grant: NS066464 PI Name: John Bushweller, University of Virgina
# 2 ul of protein solution (200 nM ERG domain in 300mM KCl, 50mM Tris-HCl, 1mM EDTA, 1mM DTT, pH 7.5); 20 nl Control plate and compound library plate; 2 ul of 200 nM biotin-DNA; incubate for 10 min at RT; 1 ul of anti-His antibody conjugated to the long-life fluorescent cryptate donner […] (5ng/ul) and streptavidin conjugated to the acceptor compound […] (0.2 ng/ul) mix; incubate 10 min and measure FRET (Excitation = 320 nm, Emission = 615, 665 nm).
# Potency is the fitted concentration of half-maximal effect; tags give direction and shape of the fitted curve.
row,SMILES,Potency
1,Nc1ccc2nonc2c1[N+](=O)[O-],active: 50.1 µM
2,COc1cc(C(c2c(O)c3ccccc3oc2=O)c2c(C)n(C)n(-c3ccccc3)c2=O)ccc1O (stereo not drawn),"inconclusive: 70.8 µM [inhibitor, partial curve, poor fit]"
3,NCCc1cc(O)c(O)cc1O,"inconclusive: 112 µM [inhibitor, partial curve, poor fit] and inconclusive: 35.5 µM [inhibitor, partial curve, poor fit]"
4,CC(C)(O)/C=C/C(=O)C(C)(O)C1C(O)CC2(C)C3CC=C4C(C=C(O)C(=O)C4(C)C)C3(C)C(=O)CC12C (stereo not drawn),"inconclusive: 112 µM [inhibitor, single point]"
5,COc1ccccc1N1CCN(CCc2c[nH]c3cc4c(cc23)OCO4)CC1,"inconclusive: 0.501 µM [inhibitor, partial curve, poor fit]"
6,CCCCC(CC)COC(=O)CCCCC(=O)OCC(CC)CCCC (stereo not drawn),"inconclusive: 126 µM [inhibitor, single point]"
7,O=C(CN1CC=C(c2ccccc2)CC1)Nc1cc(Cl)ccc1Cl,"inconclusive: 126 µM [inhibitor, single point]"
8,C=C1C2C[C@@]3([C@@H]1O)[C@@H](C[C@@H]2O)[C@@]12C4[C@@H]3C[C@@H]1[C@@](C)(CC[C@@H]2O)CN4CC,inactive
9,CC(C)N1CCN(Cc2ccccc2C(F)(F)F)CC1CCO (stereo not drawn),"inconclusive: 126 µM [inhibitor, single point]"
10,CCCCOc1ccc(C(=O)N2CC(=O)Nc3ccc(Br)cc3C2c2ccc(F)cc2)cc1 (stereo not drawn),"inconclusive: 112 µM [inhibitor, partial curve, poor fit]"
11,CC12CC3CC(C)(C1)CC(N)(C3)C2,"inconclusive: 0.0282 µM [inhibitor, full curve, poor fit]"
12,CN1CCc2cccc(Cl)c2CC1,"inconclusive: 79.4 µM [inhibitor, partial curve, poor fit]"
13,OC(COCc1ccc(Cl)cc1)CN1CC=C(c2ccccc2)CC1 (stereo not drawn),"inconclusive: 100 µM [inhibitor, partial curve, poor fit]"
